{"source": "ChEMBL document CHEMBL1157539", "about": "“Thousands of chemical starting points for antimalarial lead identification” (Nature, 2010)", "note": "Whole data set: some 13,000 compounds, median “IFI” near 4, cut for the highest 2% near 17. The list shows a part of the results.", "data": [{"experiment": "GSK_TCMDC: Inhibition Frequency Index (IFI). The number of non-kinase HTS assays where a compound showed > 50 % inhibition, expressed as a percentage of the number of such assays in which the compound was tested (-0 is zero)", "assay_type": "functional", "units": {"IFI": "%"}, "values": [{"smiles": "CCc1nc(N)nc(N)c1-c1ccccc1", "IFI": 0.75}, {"smiles": "CC(C)Oc1cc2c(cc1NS(=O)(=O)c1ccc(-c3cccs3)cc1)CCN(C)CC2", "IFI": 4.26}, {"smiles": "COCCOc1nc(N)nc2ncc(Cc3cc(OC)ccc3OC)c(C)c12", "IFI": 2.9}, {"smiles": "CCN(CC)/C(=N/C(=N)Nc1ccc(Cl)cc1)NCCCCCCCCN/C(=N\\C(=N)Nc1ccc(Cl)cc1)N(CC)CC", "IFI": 5.8}, {"smiles": "CCOC(=O)c1ccc(NCc2ccccn2)cc1", "IFI": -0}, {"smiles": "COCCNC(=O)C(CNC(=O)c1ccc2c(c1)OCO2)NC(=O)c1ccc(-c2ccccc2)cc1", "note": "(centres undefined)", "IFI": 1.49}, {"smiles": "CCOc1ccccc1CNc1nccc(NCCc2cn(C)c3ccccc23)n1", "IFI": 7.69}, {"smiles": "O=C(Nc1cccc(CN2CCCN(Cc3cccc(O)c3)CC2)c1)c1ccc2ccccc2c1", "IFI": 3.42}, {"smiles": "CN(CCN)Cc1cccc(-c2cccc(-c3nc4cc(F)ccc4[nH]3)c2)c1", "IFI": 3}, {"smiles": "CCC(C)NC(=O)Nc1ccc(-c2cccc(-c3nc4ccccc4[nH]3)c2)cc1", "note": "(centres undefined)", "IFI": 7.77}, {"smiles": "CN(CCc1ccccn1)Cc1ccc(-c2ccc(-c3nc4ccccc4[nH]3)s2)cc1", "IFI": 4.1}, {"smiles": "COc1ccc(F)cc1-c1ccc(C(=O)N2CCCN(c3ccc(C(F)(F)F)cn3)CC2)cc1", "IFI": 9.33}, {"smiles": "CN1CCN(CCCNCc2cccc(-c3ccc(CNCCc4ccccc4)cc3)c2)CC1", "IFI": 2.88}, {"smiles": "CC(C)COc1ccc(C(O)C(CN2CCCCC2)c2ccccc2)cc1", "note": "(centres undefined)", "IFI": 0.74}, {"smiles": "CCOC(=O)c1ccc(-c2cnoc2-c2cc(CC)c(OC)cc2O)o1", "IFI": 2.27}, {"smiles": "COc1ccc(-c2cccc(NC(=O)c3cccc(Cl)c3)c2)cc1CN(C)CCN(C)C", "IFI": 5.83}, {"smiles": "CC(C)C[C@@H]1C(=O)N[C@H](C2Cc3ccccc3C2)C(=O)N1[C@@H](C(=O)O)c1ccc(F)cc1F", "IFI": 0.75}, {"smiles": "Cc1noc(C)c1-c1cccc(CNCc2ccc(-c3ccc(-c4nc5cccc(C)c5[nH]4)cc3)cc2)c1", "IFI": 7.77}, {"smiles": "c1ccc(CN2CCN(CCNc3c4ccccc4nc4ccccc34)CC2)cc1", "IFI": 6.82}, {"smiles": "COc1ccc(N2CCc3c(-c4cccc5cnccc45)cc(C)nc32)c(C)c1", "IFI": 15.9}, {"smiles": "O=C(NCCCCN1CCN(c2cccc3c2CCCC3)CC1)c1ccc(NC(=O)c2ccc(Cl)cc2)cc1", "IFI": 6.78}, {"smiles": "O=C(NCCCCN1CCC(c2ccc3ccccc3c2O)CC1)c1ccc(NC(=O)c2ccc(Cl)cc2)cc1", "IFI": 9.26}, {"smiles": "COc1ccc(C2CC(=O)C3=C(C2)NC(C)=C(C(=O)OC(C)C)C3c2ccc(O)cc2)cc1OC", "note": "(centres undefined)", "IFI": 0.74}, {"smiles": "COc1ccc2nc(-c3ccccc3)cc(NCCN(C)C)c2c1", "IFI": 0.75}, {"smiles": "CC(=O)Nc1ccc(CN2CCCN(c3cc(NC(=O)c4cccc(C)c4)ccn3)CC2)cc1", "IFI": 10}, {"smiles": "CC(C)C[C@H](NC(=O)c1ccc(OCCN2CCOCC2)cc1)C(=O)N[C@H](/C=N/N(C)C(=O)c1ccccc1)CCc1ccccc1", "IFI": 2.75}, {"smiles": "COc1ccccc1C1CCN(C2CCC(NC(=O)c3cc(-c4ccc(Cl)cc4)cs3)CC2)CC1", "note": "(centres undefined)", "IFI": 16.4}, {"smiles": "O=C(C=Cc1ccc(C(=O)Nc2ccc(C3=NCCN3)cc2)cc1)Nc1ccc(C2=NCCN2)cc1", "IFI": 8.89}, {"smiles": "O=c1[nH]c2ccc(Nc3nccc(NCCc4ccccc4)n3)cc2[nH]1", "IFI": 0}, {"smiles": "Cc1cc(N2CCCCC2)nc2ccc(NC(=O)c3cc(=O)c4ccccc4o3)cc12", "IFI": 0.68}, {"smiles": "c1ccc2cc3c(Nc4ccc(N5CCCCCC5)cc4)ccnc3cc2c1", "IFI": 2.24}, {"smiles": "COC(=O)c1ccc(C2OC3(C(=O)c4ccccc4C3=O)C(OC)=C2Cl)cc1C(C)=O", "note": "(centres undefined)", "IFI": 0.75}, {"smiles": "CCn1ccc2c(N3CCCCS3(=O)=O)cc(C(=O)N[C@@H](Cc3ccccc3)[C@H](O)CNC3CCCCC3)cc21", "IFI": 4.35}, {"smiles": "Cc1cc(Nc2ccc(Cl)c(Cl)c2)n2nc(C)nc2n1", "IFI": 1}, {"smiles": "O=C(/C=C/c1ccc(Cl)c(Cl)c1)NCCCCN1CCCN(C(=O)Nc2ccc(Cl)c(Cl)c2)CC1", "IFI": 7.32}, {"smiles": "Cc1nnc(-c2ccc3ccccc3c2)c2cn(-c3cccc([N+](=O)[O-])c3)nc12", "IFI": -0}, {"smiles": "C[C@H](NC(=O)c1c(CN2CCN(C(=O)C(C)(C)C)CC2)c(-c2cccs2)nc2ccccc12)C1CCCCC1", "IFI": 4.35}, {"smiles": "COc1cc(-n2c(CN3CCCC3)nc3cc(-c4ccc(Cl)cc4)sc3c2=O)ccc1OCCN1CCCC1", "IFI": 6.99}, {"smiles": "CCCCCCCc1c(C)nc2cccc(OC)c2c1O", "IFI": 12.5}, {"smiles": "O=C(NC1CC1)c1cnc(N2CCN(Cc3ccc(Cl)cc3)CC2)c(Cl)c1", "IFI": 8.33}, {"smiles": "COc1ccc(C(C(=O)NC2CCN(C[C@H](O)c3ccnc4ccc(OC)cc34)CC2)N2CCN(Cc3ccccc3)CC2)cc1", "note": "(some centres undefined)", "IFI": 2.08}, {"smiles": "Nc1cccc(CNCc2cccc(-c3ccc(-c4nc5ccccc5[nH]4)cc3)c2)c1", "IFI": 3.81}, {"smiles": "Cc1cnc(Nc2cccnc2)nc1Nc1ccccc1C(=O)NC(C)C", "IFI": -0}, {"smiles": "COc1ccc2ccccc2c1C=NNc1ccnc2cc(Cl)ccc12", "IFI": 2.84}, {"smiles": "CCNc1cc(C(=O)N[C@@H](Cc2ccccc2)[C@H](O)CNC(C)(C)CSCC(C)C)cc(N2CCCC2=O)c1", "IFI": 2.99}, {"smiles": "CN(C)CCC1CCCc2ccc(NC(=O)Nc3ccc(-c4ccncc4)c4ccccc34)cc21", "note": "(centres undefined)", "IFI": 6.06}, {"smiles": "CCN1CCN(Cc2ccc(NC(=O)c3cc4ccc5cccnc5c4[nH]3)cc2)CC1", "IFI": 4.62}, {"smiles": "Cc1cc(N[C@@H](CC(C)C)C(=O)NCCc2ccccc2)nc(NCCc2ccc(F)cc2)n1", "IFI": 6.82}, {"smiles": "CN1CCC(NCc2ccc(-c3ccc(S(=O)(=O)NCc4ccccc4)s3)cc2)CC1", "IFI": 8.74}, {"smiles": "Cc1nnsc1C(=O)Nc1cccc(-c2cccc(-c3nc4cc(F)ccc4[nH]3)c2)c1", "IFI": 6.42}, {"smiles": "Cc1ccc(Cc2c(N)nc3nc(N)nc(N)c3c2C)cc1", "IFI": 3.03}, {"smiles": "CCNc1cc(C(=O)N[C@@H](Cc2ccccc2)[C@H](O)CNCCC(C)(C)C)c(F)c(N2CCCCS2(=O)=O)c1", "IFI": 1.47}, {"smiles": "CN(C)CCC1CCN(CCS(=O)(=O)c2cccc(Nc3ccc(-c4ccsc4)cn3)c2)CC1", "IFI": 11.1}, {"smiles": "Cc1ccc(-c2cc(C(=O)Nc3ccc(S(=O)(=O)N(C)Cc4ccccc4)cc3)[nH]n2)c(O)c1", "IFI": 4.29}, {"smiles": "CN(C)c1ccc(CN2CCC(NC(=O)c3ccc(-c4cccc(F)c4)s3)CC2)cc1", "IFI": 10.5}, {"smiles": "CCOC(=O)c1nc(-c2ccc(Cl)cc2)[nH]c1NC(=S)NCCCN1CCOCC1", "IFI": 1.53}, {"smiles": "Cc1ccc(NC(=O)c2ccc(CN3CCCN(CC4CCCCC4)CC3)cc2)cc1C", "IFI": 9.09}, {"smiles": "COc1cc2c(cc1OC)CC(NCCCCCCNCCc1ccc(Cl)cc1)CC2", "note": "(centres undefined)", "IFI": 8.03}, {"smiles": "O=C(NC1CCCCC1)N(Cc1ccc(-c2ccc(CNCc3ccc4c(c3)OCO4)cc2)cc1)C1CCN(Cc2ccccc2)CC1", "IFI": 6.87}, {"smiles": "Cc1ccccc1Nc1nc(Nc2ccccc2)c2ccccc2n1", "IFI": 3.65}, {"smiles": "CC1(C)CCCN(c2ncc(-c3cccc(CNCc4ccccc4O)c3)cn2)C1", "IFI": 8.14}, {"smiles": "CC(C)c1cn2c3c(cc(C(=O)N[C@@H](Cc4ccccc4)[C@H](O)CNC4CCOCC4)cc13)N(C)S(=O)(=O)CC2", "IFI": 4.44}, {"smiles": "Cc1ccc(C(C)C)c(Oc2ccc3nc(N)nc(N)c3c2)c1", "IFI": 15.4}, {"smiles": "O=C(NC1CCN(CCC(NC(=O)c2ccccc2)c2ccc(Cl)c(Cl)c2)CC1)c1ccc(Cl)cc1", "note": "(centres undefined)", "IFI": 4.76}, {"smiles": "O=C(NCCCCN1CCC(c2ccc3c(c2OCCCO)CCCC3)CC1)c1ccc(-c2ccc(C(F)(F)F)cc2)c(CO)c1", "IFI": 10.1}, {"smiles": "C=Cc1cc(NC(=O)N2CCc3cc(OC)c(C(F)(F)F)cc32)cc(-c2cccnc2)c1", "IFI": 2.86}, {"smiles": "Cc1cc(O)c2c3c1C(=O)C=C1C3c3c(c(O)cc(O)c3C(=O)C1(C)C)C2=O", "note": "(centres undefined)", "IFI": 13}, {"smiles": "CC(C)(C)c1nn(-c2ccccc2)c2[nH]c(=O)c(CNCc3ccc4c(c3)OCO4)cc12", "IFI": 4.48}, {"smiles": "CCCNc1ccc2nccc(CCN3CCC(NCc4ccc5c(c4)NC(=O)CS5)CC3)c2n1", "IFI": 3.13}, {"smiles": "CCCCc1ccccc1NS(=O)(=O)c1ccc(OC)c(N2CCNCC2)c1", "IFI": 2.86}, {"smiles": "Cc1ncccc1C(=O)Nc1ccc(-c2cccc(-c3nc4cccc(C)c4[nH]3)c2)cc1", "IFI": 4.63}, {"smiles": "CCn1c(-c2nonc2N)nc2cnc(Oc3cccc(NC(=O)c4ccc(OCCN5CCCCC5)cc4)c3)cc21", "IFI": 4.76}, {"smiles": "CCc1cc2c3c(N)nc(N)nc3ccc2n1C(C)CC", "note": "(centres undefined)", "IFI": 8.57}, {"smiles": "O=C(Nc1ccc(C(F)(F)F)cc1)c1cccc(S(=O)(=O)NCC2CCCN(CC3CCCCC3)C2)c1", "note": "(centres undefined)", "IFI": 4.76}, {"smiles": "Cn1nc(-c2cccc(CN[C@@H]3CCc4ccc(O)cc43)c2)c2cnc(NCCCN3CCCC3)nc21", "IFI": 3.85}, {"smiles": "SC(=Nc1ccc(Cl)c(Cl)c1)NN=Cc1ccccn1", "IFI": 6.62}, {"smiles": "Cc1cccc(CNc2nc(C)cc(N[C@@H](CC(C)C)C(=O)NCCOc3ccccc3)n2)c1", "IFI": 7.5}, {"smiles": "Clc1ccc(OCCC2CCN(CCCCCCCN3CCC(CCOc4ccc(Cl)c(Cl)c4)CC3)CC2)cc1Cl", "IFI": 18.6}, {"smiles": "Oc1cc(NC[C@H]2CCC[C@@H]2NCc2cc(Br)cc(Br)c2)nc2ccccc12", "IFI": 2.99}, {"smiles": "Oc1ccccc1N1CCN(c2ccc(-c3nc4ccccc4[nH]3)cn2)CC1", "IFI": 10.2}, {"smiles": "COc1ccc(N2CCN(CCCN3CCN(C(=O)c4ccc(/C=C/c5ccc(Cl)c(Cl)c5)cc4)CC3)CC2)c(OC)c1", "IFI": 7.96}, {"smiles": "O=C(CCC1CCCC1)N(Cc1ccc(-c2ccc(CNCCc3ccccn3)cc2)cc1)CC1CCCCN1", "note": "(centres undefined)", "IFI": 5.15}, {"smiles": "CC(C)(C)c1nn(-c2ccccc2)c2[nH]c(=O)c(CNCCc3ccccc3)cc12", "IFI": 4.71}, {"smiles": "CCCN(CCC)C(=O)c1cc(C(=O)N[C@@H](Cc2ccccc2)[C@H](O)CNC(C)(C)c2cccc(C(F)(F)F)c2)cc(N2CCCCS2(=O)=O)c1", "IFI": 5.67}, {"smiles": "CCCCCCCCNCCCSCCCNCCCCCCCC", "IFI": 14.3}, {"smiles": "CCC(=O)Nc1ccc(Nc2nc(C)cc(N3CCCC3)n2)cc1", "IFI": 7.84}, {"smiles": "N#CC1(CCCNCCc2ccc(O)cc2)CCCc2c(O)cccc21", "note": "(centres undefined)", "IFI": -0}, {"smiles": "OCCN1CCN(Cc2ccc(-c3ccc(-c4nc5cc(F)ccc5[nH]4)cc3)cc2)CC1", "IFI": 8.91}, {"smiles": "CN(CCCCCN1CCC(NC(=O)Nc2ccc(C(F)(F)F)cc2)C1)C(=O)/C=C/c1ccc(Cl)c(Cl)c1", "note": "(centres undefined)", "IFI": 4.26}]}]}
